In experiment [1] the target is T1, CD28 antigen used for the affinity determinations (human, UniProt P10747 19-152, limits assumed).
T1 construct: Octet/BLI is described only for the bivalent mAbs
The experiment is described as follows: CD28 binding affinity of the scFv (monovalent, scFv in 1+1 Fab-scFv-Fc bsAb, FIG. 20); method not stated.

Experiment [2] concerns the target T1, CD28 antigen used for the affinity …. Description: monovalent affinity for human CD28 of the scFv in the context of the 1+1 Fab-scFv-Fc bsAb format; method not stated for this figure.

B1: 1A7_H1_L1.71 CD28 binding domain as scFv (in the context of the 1+1 Fab-scFv-Fc bsAb format) (scFv)
scFv: EVQLLESGGGLVQPGGSLRLSCAASGFTFSSYAMSWVRQAPGKGLEWVSTISGSGDSTYYADSVKGRFTISRDNSKNTLYLQMNSLRAEDTAVYYCAKSGPGLRQVGFDYWGQGTLVTVSSGKPGSGKPGSGKPGSGKPGS[left out - about 100 residues]
notes: It was measured as an scFv within a 1+1 Fab-scFv-Fc bsAb whose Fab arm and Fc are not specified at that place; also called 1A7[CD28]_H1_L1.71
For orientation: Kd means the equilibrium constant for the complex coming apart. The molecule B1 returned a dissociation constant Kd in experiment [1] of 180 nM.

B2: H1.1_L1.71 (scFv)
scFv: EVQLLESGGGLVQPGGSLRLSCAASGFTFSSYYMSWVRQAPGKGLEWVSTISGSGDSTYYADSVKGRFTISRDNSKNTLYLQMNSLRAEDTAVYYCAKSGPGLRQVGFDYWGQGTLVTVSSGKPGSGKPGSGKPGSGKPGS[left out - about 100 residues]
notes: The rest of the bsAb is not specified; also called 1A7[CD28]_H1.1_L1.71 as scFv, VHVL orientation
For the molecule B2, binding in experiment [2] was characterised by a dissociation constant (Kd) of 96 nM.

The values are drawn from patent US20250388704A1 (Xencor, published 2025).
